In all, about 190,000 compounds went through this assay and about 520 (0.27%) were called active. The inconclusive results got no clear call from the source; some entries with a clear call stand among them for comparison.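 How the source made its calls: active means GTP binding activity at least 20 points away from the 100% control level, either lower or higher; inconclusive means compound flagged as likely green fluorescent, judged across all proteins; inactive means the rest.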
Target: Ras-related C3 botulinum toxin substrate 1 (Homo sapiens) (UniProt P63000)
Assay: wildtype Rac1 GTP binding modulators, primary screen, biochemical, GST-Rac1 beads, flow cytometry, multiplex (AID 757)
Conditions: fluorescent GTP binding, at 10 µM, actives lie on both sides, 0 = cold GTP competed, 100 = untreated

SMILES | GTP binding activity (% of control)
COc1ccccc1CNC(=O)c1cc2c(C)nn(Cc3ccc(F)cc3)c2s1 | inconclusive: 107%
O=c1[nH]c2cc([N+](=O)[O-])c([N+](=O)[O-])cc2[nH]c1=O | inconclusive: 85%
CCOc1c(Cl)cc(Cl)cc1CNCCNCCO | inconclusive: 104%
CCOc1ccc(N2C(=O)CC(N(CCc3ccc(OC)cc3)C(=O)/C=C/C(=O)O)C2=O)cc1 (configuration not stated) | inconclusive: 91%
Fc1ccc(C(Nc2ccccn2)c2c[nH]c3ccccc23)cc1 (configuration not stated) | inconclusive: 91%
COc1ccc(-c2cc(-c3ccccc3)n3ncnc3n2)cc1 | inconclusive: 106%
COc1ccc(NC(=S)NC(=O)CC(C)C)c(OC)c1 | inactive: 99%
Cn1nnnc1Sc1ncnc2scc(-c3ccc(F)cc3)c12 | inconclusive: 140%
CC(=O)c1ccc(-n2nncc2-c2ccc([N+](=O)[O-])cc2)cc1 | inconclusive: 90%
COc1ccc(S(=O)(=O)n2oc(=O)cc2-c2ccccc2)cc1 | inactive: 94%
Cc1nn(Cc2ccc(F)cc2)c2sc(C(=O)Nc3ccc(N4CCOCC4)cc3N3CCOCC3)cc12 | inconclusive: 101%
CC(C)N(C)NC(=S)Nc1ccccc1 | inconclusive: 231%
CCOc1ccc(C2C(C(=O)O)CCC(=O)N2C2CCCCC2)cc1 (configuration not stated) | active: 71%
CC(NC(=O)Cn1cc(C(F)(F)F)ccc1=O)c1ccc(F)cc1 (configuration not stated) | inactive: 91%
c1ccc2oc(SCc3nc4ccccc4s3)nc2c1 | inconclusive: 84%
COc1ccc(/C=C/C(=O)Nc2ccccc2C(F)(F)F)cc1OC | inconclusive: 91%
Cc1cc(C)cc(NC(=O)NCc2nnc(SCc3ccccc3)n2C)c1 | inconclusive: 92%
CN(C)S(=O)(=O)c1ccc(Cl)c(C(=O)Nc2nc3ccccc3[nH]2)c1 | inconclusive: 93%
CCc1cccc(N(C(=O)c2csnn2)C(C(=O)NC(C)(C)C)c2ccncc2)c1 (configuration not stated) | inactive: 101%
CN(C)C(=O)CSc1nc(SCC(=O)N(C)C)n(-c2ccccc2)n1 | inconclusive: 104%
COc1cccc2cc(-c3ccnc(=S)[nH]3)oc12 | inconclusive: 69%
CCOC(=O)CSc1nc2c(sc(=S)n2-c2ccccc2)c(=O)[nH]1 | inconclusive: 92%
COc1ccc(NC(=O)CSc2[nH]c(=O)cc(C)c2C#N)cc1OC | inconclusive: 94%

SMILES | GTP binding activity (% of control)
O=C(Nc1nc(-c2ccncc2)cs1)c1ccc(S(=O)(=O)N2CCOCC2)cc1 | inconclusive: 95%
CC(=O)NNc1nc(-c2ccccc2)c2cc(Br)ccc2n1 | inactive: 105%
Cc1ccc(S(=O)(=O)NC(C(=O)N2CCOCCOCCOCC2)c2ccccc2)cc1 (configuration not stated) | inactive: 100%
CCN(C(=O)CSc1nnc(C)n1-c1ccccc1)C1CCS(=O)(=O)C1 (configuration not stated) | inconclusive: 94%
COc1cc(OC)cc(C(=O)N[C@H](C(=O)OCC(=O)NC(=O)c2cccn2C)C(C)C)c1 | inactive: 99%
CCCCC(=O)Nc1ccc(C(=O)NNC(=O)CCc2ccccc2)cc1 | inconclusive: 108%
NC1=NC(=O)/C(=C\c2ccc(O)c([N+](=O)[O-])c2)S1 | active: 78%
O=c1c2ccccc2nc2ccc(NCc3ccco3)nn12 | inactive: 93%
O=C(O)c1ccc(Br)c(S(=O)(=O)N2CCCC2)c1 | inconclusive: 114%
Cc1n[nH]c(C)c1CCOc1ccc(C(C)C)cc1 | inconclusive: 89%
C=CCN1C(=O)/C(=C/c2ccc(N(C)C)cc2)S/C1=N\c1nnc(CC)s1 | inconclusive: 129%
CCOC(=O)Cn1c(=O)c2c(nc(N3CCCCC3)n2C)n(C)c1=O | active: 142% [activator]
CCOC(=O)c1c(-c2ccccc2)csc1NC(=O)/C(C#N)=C/c1ccc(O)c(OC)c1 | inconclusive: 143%
COc1cccc(-n2ccnc2SCC(=O)Nc2ccccc2F)c1 | inconclusive: 92%
COC(=O)c1ccccc1NC(=O)C1COc2ccccc2O1 (configuration not stated) | inconclusive: 97%
CCN(CC)C(=O)/C(=C\c1ccc2c(c1)OCO2)NC(=O)c1ccc(Br)cc1 | inconclusive: 97%
Cc1cc(C)c2cc(CNC3CCCC3)c(Cl)nc2c1 | inconclusive: 107%
O=C(NCCCN1CCOCC1)c1cccc(S(=O)(=O)Nc2cc(Cl)ccc2Cl)c1 | inactive: 96%
CC(c1ccccc1)N1CC(C(=O)N2CCN(c3ccc(F)cc3)CC2)CC1=O (configuration not stated) | inconclusive: 90%
COc1ccc(CC(=O)Nc2ccc(S(=O)(=O)NC(C)C)cc2)cc1 | active: 27%
CCOC(=O)/C=C/C(=O)Nc1ccc(Oc2ccccc2)cc1 | inconclusive: 101%
CC(C)Oc1ccc(C(CC(=O)O)n2cnnn2)cc1 (configuration not stated) | inconclusive: 99%
Cc1ccccc1C(=O)NNC(=O)c1cccc([N+](=O)[O-])c1 | inconclusive: 98%

SMILES | GTP binding activity (% of control)
Cn1nnnc1SCc1ccc(C(=O)Nc2nccs2)cc1 | active: 71%
CC(C)(C)NCCOc1ccc(Br)cc1 | inconclusive: 104%
CCOc1ccc(-n2c(=S)sc3c(=O)[nH]c(SCC(=O)N4CCC(C)CC4)nc32)cc1 | inconclusive: 100%
CC1Oc2ccccc2OC1C(=O)Nc1ccccn1 (configuration not stated) | inconclusive: 106%
O=C(NCc1ccco1)/C(=C\c1cccs1)NC(=O)c1ccco1 | inconclusive: 96%
COc1ccccc1CN1CCNC(=O)C1CC(=O)NCCOc1cccnc1 (configuration not stated) | inactive: 100%
O=C1CCCc2ccccc2N1Cc1ccccc1 | inconclusive: 100%
Cc1cc(C)nc(NS(=O)(=O)c2ccc(NC(=O)CCC3COc4ccccc4O3)cc2)n1 (configuration not stated) | inconclusive: 92%
CC(C)C(=O)Nc1c(O)c2ccccc2[nH]c1=O | inconclusive: 95%
CCN1CCCC1CNC(=O)c1ccc(N2CCOCC2)c(NS(=O)(=O)c2ccc(OC)cc2)c1 (configuration not stated) | inactive: 103%
Cc1ccc(C2=Nc3cccnc3C(c3ccccc3)=NN2)cc1 | inactive: 100%
O=C1NC(=S)N/C1=C/c1cc([N+](=O)[O-])ccc1N1CCOCC1 | inconclusive: 91%
COc1ccc(N2CCN(C(=O)Cn3cnc4c(cnn4-c4ccc(C)cc4)c3=O)CC2)cc1 | inactive: 101%
CCn1c(=O)c(C(=O)Nn2c(C)nc3ccccc3c2=O)c(O)c2ccccc21 | inconclusive: 89%
O=C(CCc1ccccn1)N1CCCC(CNS(=O)(=O)c2cccs2)C1 (configuration not stated) | active: 54%
O=C1/C(=C\c2ccc(-c3ccccc3Cl)o2)SC(=S)N1CC1CCCO1 (configuration not stated) | active: 59%
CSc1cccc(NS(=O)(=O)c2cccc3nsnc23)c1 | inconclusive: 99%
CC1CN(C(=O)CSc2nnc(-c3ccncc3)n2-c2ccccc2)CC(C)O1 (configuration not stated) | inconclusive: 89%
O=C(CCc1nnc(C2(c3ccc(Cl)cc3)CCC2)o1)NCCCn1cccn1 | inactive: 98%
COC(=O)c1sccc1NC(=O)Nc1cccc(F)c1 | inconclusive: 86%
COc1ccc2cc(C)c3nnc(SCc4cccnc4)n3c2c1 | inactive: 86%
CCN(CC)S(=O)(=O)c1cccc(NC(=O)CN2C(=O)c3ccc([N+](=O)[O-])cc3C2=O)c1 | inactive: 104%
COc1ccc(C(=O)NCc2nnc(SCC(=O)NCc3ccc(F)cc3)o2)cc1 | inconclusive: 104%

SMILES | GTP binding activity (% of control)
COc1ccccc1C1(O)CCN(CC(=O)Nc2nc(-c3ccccc3)cs2)CC1 | inactive: 97%
COc1cc(/C=N/Nc2nncn2/N=C/c2ccc(O)c(OC)c2)ccc1O | active: 75%
O=C(NNC(=O)c1cccc(O)c1)Nc1ccc([N+](=O)[O-])cc1 | inconclusive: 97%
CCn1c(C)c(C(C)=O)cc(C#N)c1=O | inactive: 99%
COc1cc2c(cc1NC(=O)CSc1ccccn1)oc1ccccc12 | inconclusive: 105%
OCCC1CN(Cc2cn[nH]c2C2CCCCC2)CCN1C1CCCC1 (configuration not stated) | inactive: 104%
Cc1ccc(-n2c(-c3cnccn3)n[nH]c2=S)c(Br)c1 | inactive: 81%
O=C(c1ccccc1)c1ccc(O)cc1O | inconclusive: 110%
O=C(O)CCCCCN1C(=O)C(O)=C(C(=O)/C=C/c2ccccc2)C1c1ccc2c(c1)OCO2 (configuration not stated) | inconclusive: 89%
CC(C)(C)C1CCc2onc(C(=O)Nc3cnn(Cc4ccc(F)cc4)c3)c2C1 (configuration not stated) | inconclusive: 103%
CCOc1cc(NC(=S)NCCCN(C)C)c(OCC)cc1NC(=O)c1cccs1 | inconclusive: 106%
c1ccc(CSc2nnnn2-c2cccc3ccccc23)nc1 | inconclusive: 105%
CC1CCOC2(O1)C(=O)N(CN1CCN(c3ccccc3F)CC1)c1ccccc12 (configuration not stated) | inconclusive: 105%
CCOC(=O)C(C(=O)OCC)c1cc(Br)c2noc3c2c1C(=O)c1ccccc1-3 | inactive: 94%
Cc1ccc(NC(=O)Cn2nc(C)cc2C)cc1 | inconclusive: 107%
Cc1c(C(=O)Nc2nc3ccccc3[nH]2)oc2c(Cl)cccc12 | inconclusive: 76%
COc1cc(COCC(O)CN2CCN(Cc3ccc4c(c3)OCO4)CC2)cc(OC)c1OC (configuration not stated) | inactive: 102%
CCOC(=O)C(NC(=O)Nc1ccc(O)cc1)(c1ccccc1)C(F)(F)F (configuration not stated) | inactive: 103%
CCCNC(=S)N1CCC(n2cnc3ccccc32)CC1 | inconclusive: 100%
COc1ccc(-c2ccc(SCC(=O)Nc3nnc(C)s3)nn2)cc1 | inconclusive: 102%
COc1cccc(C2=NN(C(=O)c3ccccc3)C(O)(C(F)(F)F)C2)c1 (configuration not stated) | inconclusive: 105%
O=C(/C=C/c1cn(-c2ccccc2)nc1-c1ccccc1)Nc1ccc(C(=O)O)cc1 | inconclusive: 76%
CCOc1cccc(NC(=O)c2cccc(F)c2)c1 | inactive: 98%
